# Results published in the supplement of paper PMC8728848.
# This is one part of the list.
# B1: Gal 3 (Homo sapiens), P17931 (protein)
# chain: MADNFSLHDALSGSGNPNPQGWPGAWGNQPAGAGGYPGASYPGAYPGQAPPGAYPGQAPPGAYHGAPGAYPGAPAPGVYPGPPSGPGAYPSSGQPSAPGAYPATGPYGAPAGPLIVPYNLPLPGGVVPRMLITILGTVKPNANILDFQRGNDVAFHFNPRFNENNRRVIVCNTKLDNNWGREESQSVFPFESGKPFKIQVLVEPDHFKVAVNDAHLLQYNHRVKKLNEISKLGISGDIDLTSASYTMI
# Columns and labels:
# Experiment in all cases: glycan array binding signal (z-score within array); higher = stronger binding
# Settings in all cases: glycan notation: IUPAC condensed, linker removed; mutation: R186S
# [1] = target: GalNAc(b1-3)Gal(a1-4)Gal(b1-4)GlcNAc
# Procedure, shortened: (§1)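 Glycan array binding is given as a within-array Z-score, which can be read as non-binding when negative. The arrays, 3228 of them, came from the Consortium for Functional Glycomics database and were retained only where the protein sequence was available. Z-scores were averaged across arrays of the same protein sequence at different concentrations or buffers and across linkers.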
# [2] = target: GalNAc(b1-3)Gal(a1-4)Gal(b1-4)GlcNAc(b1-3)Gal(b1-4)Glc
# Procedure, shortened: as §1
# [3] = target: GalNAc(b1-3)Gal(a1-6)Gal(b1-4)Glc
# Procedure, shortened: as §1
# GalNAc(b1-3)GalNAc = target: GalNAc(b1-3)GalNAc
# Procedure, shortened: as §1
# GalNAc(b1-4)GlcNAc = target: GalNAc(b1-4)GlcNAc
# Procedure, shortened: as §1
# [4] = target: GalNAc(b1-4)GlcNAc(b1-2)Man(a1-3)[GalNAc(b1-4)GlcNAc(b1-2)Man(a1-6)]Man(b1-4)GlcNAc(b1-4)GlcNAc
# Procedure, shortened: as §1
# Glc(a1-4)Glc = target: Glc(a1-4)Glc
# Procedure, shortened: as §1
# Glc(a1-6)Glc(a1-6)Glc = target: Glc(a1-6)Glc(a1-6)Glc
# Procedure, shortened: as §1
# Glc(b1-4)Glc = target: Glc(b1-4)Glc
# Procedure, shortened: as §1
# Glc(b1-6)Glc = target: Glc(b1-6)Glc
# Procedure, shortened: as §1
# GlcA(b1-3)Gal = target: GlcA(b1-3)Gal
# Procedure, shortened: as §1
# GlcA(b1-3)GlcNAc = target: GlcA(b1-3)GlcNAc
# Procedure, shortened: as §1
# GlcA(b1-6)Gal = target: GlcA(b1-6)Gal
# Procedure, shortened: as §1
# [5] = target: GlcNAc(a1-3)Gal(b1-4)GlcNAc
# Procedure, shortened: as §1
# [6] = target: GlcNAc(a1-4)Gal(b1-3)GlcNAc
# Procedure, shortened: as §1
# [7] = target: GlcNAc(a1-4)Gal(b1-4)GalNAc
# Procedure, shortened: as §1
# [8] = target: GlcNAc(a1-4)Gal(b1-4)GlcNAc
# Procedure, shortened: as §1
# [9] = target: GlcNAc(a1-4)Gal(b1-4)GlcNAc(b1-3)Gal(b1-4)Glc
# Procedure, shortened: as §1
# [10] = target: GlcNAc(a1-4)Gal(b1-4)GlcNAc(b1-3)Gal(b1-4)GlcNAc
# Procedure, shortened: as §1
# [11] = target: GlcNAc(a1-4)Gal(b1-4)GlcNAc(b1-3)Gal(b1-4)GlcNAc(b1-3)Gal(b1-4)GlcNAc
# Procedure, shortened: as §1
# [12] = target: GlcNAc(a1-4)Gal(b1-4)GlcNAc(b1-3)Gal(b1-4)[Fuc(a1-3)]GlcNAc(b1-3)Gal(b1-4)[Fuc(a1-3)]GlcNAc
# Procedure, shortened: as §1
# [13] = target: GlcNAc(a1-6)Gal(b1-4)GlcNAc
# Procedure, shortened: as §1
# [14] = target: GlcNAc(b1-2)Gal(b1-3)GalNAc
# Procedure, shortened: as §1
# [15] = target: GlcNAc(b1-2)Man(a1-3)[GlcNAc(b1-2)Man(a1-6)]Man(b1-4)GlcNAc(b1-4)GlcNAc
# Procedure, shortened: as §1
# [16] = target: GlcNAc(b1-2)Man(a1-3)[GlcNAc(b1-2)Man(a1-6)]Man(b1-4)GlcNAc(b1-4)[Fuc(a1-6)]GlcNAc
# Procedure, shortened: as §1
# [17] = target: GlcNAc(b1-2)[GlcNAc(b1-4)]Man(a1-3)[GlcNAc(b1-2)Man(a1-6)]Man(b1-4)GlcNAc(b1-4)GlcNAc
# Procedure, shortened: as §1
# GlcNAc(b1-3)Gal = target: GlcNAc(b1-3)Gal
# Procedure, shortened: as §1
# [18] = target: GlcNAc(b1-3)Gal(b1-3)GalNAc
# Procedure, shortened: as §1
# GlcNAc(b1-3)Gal(b1-4)Glc = target: GlcNAc(b1-3)Gal(b1-4)Glc
# Procedure, shortened: as §1
# [19] = target: GlcNAc(b1-3)Gal(b1-4)GlcNAc
# Procedure, shortened: as §1
# [20] = target: GlcNAc(b1-3)Gal(b1-4)GlcNAc(b1-3)Gal(b1-4)GlcNAc
# Procedure, shortened: as §1
# GlcNAc(b1-3)GalNAc = target: GlcNAc(b1-3)GalNAc
# Procedure, shortened: as §1
# GlcNAc(b1-3)Man = target: GlcNAc(b1-3)Man
# Procedure, shortened: as §1
# [21] = target: GlcNAc(b1-3)[GlcNAc(b1-4)][GlcNAc(b1-6)]GlcNAc
# Procedure, shortened: as §1
# [22] = target: GlcNAc(b1-3)[GlcNAc(b1-6)]Gal(b1-4)GlcNAc
# Procedure, shortened: as §1
# [23] = target: GlcNAc(b1-3)[GlcNAc(b1-6)]GalNAc
# Procedure, shortened: as §1
# [24] = target: GlcNAc(b1-4)Gal(b1-4)GlcNAc
# Procedure, shortened: as §1
binder,measurement,setting,value
B1,glycan array binding signal (z-score),[1],-0.051
same,glycan array binding signal (z-score),[2],-0.057
same,glycan array binding signal (z-score),[3],-0.068
same,glycan array binding signal (z-score),GalNAc(b1-3)GalNAc,-0.059
same,glycan array binding signal (z-score),GalNAc(b1-4)GlcNAc,-0.048
same,glycan array binding signal (z-score),[4],-0.023
same,glycan array binding signal (z-score),Glc(a1-4)Glc,-0.035
same,glycan array binding signal (z-score),Glc(a1-6)Glc(a1-6)Glc,-0.051
same,glycan array binding signal (z-score),Glc(b1-4)Glc,-0.088
same,glycan array binding signal (z-score),Glc(b1-6)Glc,-0.045
same,glycan array binding signal (z-score),GlcA(b1-3)Gal,-0.029
same,glycan array binding signal (z-score),GlcA(b1-3)GlcNAc,-0.067
same,glycan array binding signal (z-score),GlcA(b1-6)Gal,-0.057
same,glycan array binding signal (z-score),[5],-0.09
same,glycan array binding signal (z-score),[6],-0.043
same,glycan array binding signal (z-score),[7],-0.02
same,glycan array binding signal (z-score),[8],-0.059
same,glycan array binding signal (z-score),[9],-0.057
same,glycan array binding signal (z-score),[10],-0.043
same,glycan array binding signal (z-score),[11],-0.005
same,glycan array binding signal (z-score),[12],-0.02
same,glycan array binding signal (z-score),[13],-0.059
same,glycan array binding signal (z-score),[14],-0.074
same,glycan array binding signal (z-score),[15],-0.082
same,glycan array binding signal (z-score),[16],-0.012
same,glycan array binding signal (z-score),[17],-0.073
same,glycan array binding signal (z-score),GlcNAc(b1-3)Gal,-0.059
same,glycan array binding signal (z-score),[18],0.007
same,glycan array binding signal (z-score),GlcNAc(b1-3)Gal(b1-4)Glc,-0.053
same,glycan array binding signal (z-score),[19],-0.083
same,glycan array binding signal (z-score),[20],-0.086
same,glycan array binding signal (z-score),GlcNAc(b1-3)GalNAc,-0.069
same,glycan array binding signal (z-score),GlcNAc(b1-3)Man,-0.041
same,glycan array binding signal (z-score),[21],0.011
same,glycan array binding signal (z-score),[22],-0.081
same,glycan array binding signal (z-score),[23],-0.075
same,glycan array binding signal (z-score),[24],-0.083
